Test results taken from PubChem BioAssay AID995 (National Center for Advancing Translational Sciences (NCATS), 2007).
Hit rate of the full screen: of about 72,000 compounds, about 710 (0.99%) were called active. The shares of active, inactive and inconclusive entries below differ from those in the screen. The call rests on the fitted dose curve; in most records, active means well fitted inhibition curve with a large enough effect; inconclusive means small, poorly fitted or top-dose-only effect; inactive means no such curve, though single readings can be large or run the other way. Potencies of inconclusive entries are left out as doubtful fits.

Experiment: qHTS Assay for Inhibitors of the ERK Signaling Pathway using a Homogeneous Screening Assay; further: nearly all actives have a fitted effect of over 55% in size
Details: HEK293-V1b, vasopressin-stimulated pERK AlphaScreen; series mostly up to 57.5 µM
Procedure, shortened: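 HEK293 cells stably expressing V1b receptor, preincubated 30 min at 37 °C with compound, then stimulated 5 min with 25 nM vasopressin. Phospho-ERK by AlphaScreen SureFire after 5 h RT; normalized to DMSO and vasopressin; AC50 by Hill fit.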
Potency means the concentration at half of the fitted maximal effect; tags describe the fitted curve by direction and shape.

Row | Structure (SMILES) | Potency
1 | CCOC(=O)c1c(NC(C)=O)sc2c1CCCNC2=O | inconclusive [inhibitor, single point]
2 | O=C(Cn1cccc1)N1CCc2ccccc21 | inconclusive [inhibitor, full curve, poor fit]
3 | CC(C)OC(=O)CSc1nnc(-c2cnccn2)n1-c1ccccc1 | inconclusive [inhibitor, full curve]
4 | O=C(CSc1nnc(Nc2ccccc2F)s1)NCc1ccco1 | inconclusive [inhibitor, partial curve]
5 | CC1(C(=O)NCc2ccccn2)C=CCN1C(=O)c1ccccc1 (stereo unspecified) | inactive
6 | Cc1c(C(=O)N2CCc3ccccc3C2)sc2nc(-c3ccccc3)cn12 | inactive
7 | COc1ccc(-c2nnc3c4ccccc4c(C)nn23)cc1S(=O)(=O)N1CCN(CCO)CC1 | inconclusive [inhibitor, partial curve]
8 | CCOC(=O)C(Sc1nnc2c3ccccc3n(CC)c2n1)C(=O)OCC | inactive
9 | COC(=O)N1CCC2(CCCN(Cc3nccs3)C2)CC1 | inactive
10 | CN(C)S(=O)(=O)c1ccc(C(=O)Nc2ccccc2OC(F)(F)C(F)F)cc1 | inconclusive [inhibitor, single point]
11 | COc1ccc(-n2c(Cc3cccn3C)nnc2SCC(=O)Nc2ccccc2C)cc1 | inconclusive [inhibitor, partial curve]
12 | COc1ccc(CNc2ncncc2-c2ccc(C(=O)N(C)C)cc2)c(OC)c1 | inconclusive [inhibitor, partial curve]
13 | CCCCNc1nc(C)nc2c1nc(-c1ccccc1)n2CC1CCCN1CC (stereo unspecified) | inconclusive [inhibitor, single point]
14 | CCCn1c(SCC(=O)Nc2ccc3c(c2)OCO3)nc2c1c(=O)n(C)c(=O)n2C | inconclusive [inhibitor, partial curve]
15 | COc1ccc(N2CSC3=C(C#N)C(c4cc(OC)ccc4OC)CC(=O)N3C2)c(OC)c1 (stereo unspecified) | inactive
16 | COc1cccc(C(=O)N(Cc2ccc3c(c2)OCO3)Cc2nc3ccccc3c(=O)[nH]2)c1 | inconclusive [inhibitor, single point]
17 | COC(=O)c1ccc(CSc2nnc(Nc3ccccc3OC)s2)o1 | inconclusive [inhibitor, partial curve, poor fit]
18 | O=C1C2CC=CCC2C(=O)N1c1ccc(OCC(O)Cn2nnc3ccccc32)cc1 (stereo unspecified) | inconclusive [inhibitor, single point]
19 | COc1ccc(-c2cc(=O)oc3c(C)c(O)c(CN(C)C)cc23)cc1 | inconclusive [inhibitor, partial curve]
20 | COC(=O)c1[nH]c2ccccc2c1NC(=O)CN1CCN(C/C=C/c2ccccc2)CC1 | inconclusive [inhibitor, partial curve]
21 | O=C(c1ccccc1F)N1CCN(c2cccc(C(F)(F)F)c2)CC1 | inconclusive [inhibitor, single point]
22 | O=C(c1ccccc1)c1nc[nH]c1C(=O)Nc1ccccn1 | inconclusive [inhibitor, partial curve]

Row | Structure (SMILES) | Potency
23 | CN(C)S(=O)(=O)c1ccc(S(=O)(=O)Nc2ccc3c(c2)oc2ccccc23)cc1 | inconclusive [inhibitor, single point]
24 | Cc1nn(-c2ccccc2)c2sc(C(=O)OCc3nnc(-c4ccccc4)o3)cc12 | inactive
25 | CCOC(=O)N1CCC(NC(=O)c2ccc(CNS(=O)(=O)c3ccc(F)cc3)cc2)CC1 | inactive
26 | C=C(C)COc1ccc2c3c(c(=O)oc2c1OCC(=C)C)CCC3 | inactive
27 | CCOc1cc(N2CCOCC2)c(OCC)cc1NC(=O)c1cc(-c2ccco2)nc2ccccc12 | inconclusive [inhibitor, full curve, poor fit]
28 | COc1ccc(S(=O)(=O)Nc2ccc3c(c2)OCO3)cc1OC | inactive
29 | CCS(=O)(=O)N1CCN(c2nc(-c3ccccc3)cs2)CC1 | inconclusive [inhibitor, single point]
30 | O=C(NCCCn1ccnc1)c1cn(-c2ccccc2)nc1-c1ccccc1 | inconclusive [inhibitor, partial curve, poor fit]
31 | CCOC(=O)c1cc(NC(=O)N2CCCc3ccccc32)c(C)nc1C | inconclusive [inhibitor, partial curve]
32 | CCOc1ccccc1OCC(=O)Nc1ccc(N2CCCCC2)cc1 | inconclusive [inhibitor, single point]
33 | COc1ccc(-n2c(C)nc3c(cnn3-c3ccc(C)c(C)c3)c2=O)cc1 | inconclusive [inhibitor, partial curve]
34 | CC(=O)c1ccc(N2CCN(C(=O)c3ccc(OCc4c(C)noc4C)cc3)CC2)cc1 | inconclusive [inhibitor, single point]
35 | CN1C(=O)c2c(sc3c2CC(C)(C)SC3)N2CCN=C12 | inconclusive [inhibitor, partial curve, poor fit]
36 | COc1ccccc1CNc1nc(-c2cccnc2)nc2ccccc12 | inconclusive [inhibitor, single point]
37 | S=C(Nc1ccccc1)Nc1nccs1 | inconclusive [inhibitor, partial curve]
38 | CC1=C(C(=O)OCC2CCCO2)C(c2ccc(O)cc2)NC(=O)N1 (stereo unspecified) | inconclusive [inhibitor, full curve, poor fit]
39 | COc1cc(-c2nc(S(=O)(=O)c3ccccc3)c(N3CCOCC3)o2)cc(OC)c1OC | inconclusive [inhibitor, partial curve]
40 | N#Cc1nc(COc2ccc(-c3ccccc3)cc2)oc1NCCCN1CCOCC1 | inconclusive [inhibitor, partial curve]
41 | COc1ccc(-c2cc(C(=O)OC3CCOC3=O)c3ccccc3n2)cc1OC (stereo unspecified) | inconclusive [inhibitor, single point]
42 | c1ccc(-n2nnnc2-n2cnc3ccccc32)cc1 | inconclusive [inhibitor, partial curve]
43 | CCOC(=O)N1CCN(c2nc3ccccc3nc2C(C#N)S(=O)(=O)c2ccc(C)cc2)CC1 (stereo unspecified) | inactive
44 | CSc1ccccc1NC(=O)Cn1c(-c2cscn2)nc2ccccc21 | inconclusive [inhibitor, partial curve]

Row | Structure (SMILES) | Potency
45 | Cc1sc2nc(SCC(=O)c3cc(C)n(CC4CCCO4)c3C)n(C(C)C)c(=O)c2c1C (stereo unspecified) | inconclusive [inhibitor, partial curve, poor fit]
46 | COc1ccc(N2CCN(C(=O)Cc3nn(C)c(=O)c4ccccc34)CC2)cc1 | inconclusive [inhibitor, single point]
47 | Cc1ccc(Cl)cc1N1CCN(C(=O)C2CCN(c3nnc(-n4cccc4)s3)CC2)CC1 | inconclusive [inhibitor, full curve]
48 | CCOCCCn1c(=N)c(C(=O)NCc2ccc3c(c2)OCO3)cc2c(=O)n3ccccc3nc21 | inconclusive [inhibitor, full curve, poor fit]
49 | COc1ccc(-c2cc(N)n(S(=O)(=O)c3c(F)c(F)c(F)c(F)c3F)n2)cc1OC | active: 5.01 µM
50 | Cc1ccccc1-c1cc(Nc2ccccc2)ncn1 | inconclusive [inhibitor, single point]
51 | c1ccc(CSc2nnc3c(n2)OC(c2ccco2)Nc2ccccc2-3)cc1 (stereo unspecified) | inconclusive [inhibitor, partial curve]
52 | COc1ccc(C2c3sc(=O)[nH]c3SC3C4CCC(C4)C23)cc1 (stereo unspecified) | inactive
53 | O=C(c1ccccc1)c1coc2ccc(O)c(Cl)c12 | inconclusive [inhibitor, single point]
54 | CCOC(=O)CSc1nc(NCc2ccco2)c2ccccc2n1 | inconclusive [inhibitor, partial curve]
55 | CS(=O)(=O)N1CCN(c2nc(-c3ccc(F)cc3)cs2)CC1 | inconclusive [inhibitor, single point]
56 | COCCNC(=O)c1cnn2c(C(F)(F)F)cc(-c3ccc4c(c3)OCO4)nc12 | inconclusive [inhibitor, single point]
57 | CCN(CC(=O)Nc1c(C(=O)OC)[nH]c2ccc(Cl)cc12)c1ccc2c(c1)OCO2 | inconclusive [inhibitor, partial curve]
58 | CCOc1cc(C(=O)Nc2ccc(S(=O)(=O)Nc3cc(C)on3)cc2)cc(OCC)c1OCC | inactive
59 | CC1CCCCN1c1nc(-c2ccncc2)nc2ccccc12 (stereo unspecified) | active: 31.6 µM
60 | Cc1cc(N2CCN(C)CC2)nc2ccc(NC(=O)c3ccc4c(c3)OCO4)cc12 | active: 12.6 µM
61 | Cn1c(C(=O)N2CCCC(C(=O)NCc3cccs3)C2)cc2sccc21 (stereo unspecified) | inconclusive [inhibitor, partial curve]
62 | CCOC(=O)C1=C(CN2CCC(C)CC2)NC(=O)NC1c1ccc(Cl)cc1 (stereo unspecified) | inactive
63 | CC(C)C(C(=O)OCC(=O)c1ccc2c(c1)NC(=O)CO2)N1C(=O)c2ccccc2C1=O (stereo unspecified) | inconclusive [inhibitor, single point]
64 | Cc1cc(-c2nn3c(-c4ccccc4)nnc3s2)c2ccccc2n1 | inactive
65 | CCOC(=O)c1oc2ccc(S(=O)(=O)Nc3ccc4c(c3)n(C)c(=O)n4C)cc2c1C | inconclusive [inhibitor, partial curve]
66 | Cc1oc2ccc(OCC(N)=O)cc2c1C(=O)OC(C)C | inconclusive [inhibitor, partial curve]
